Among all 48,000 compounds or so, about 450 (0.94%) were called active. Not shown: some 19% with an inconclusive outcome. Calls follow the shape of the dose curve; as a rule, active = well fitted inhibition curve with a large enough effect; inconclusive = small, poorly fitted or top-dose-only effect; inactive = no such curve, though single readings can be large or run the other way. The list shows a part of the results.
Potency is read from the fitted curve at half-maximal effect.

The nature of this test: Primary qHTS for Identification of Small Molecule Inhibitors of Huntingtin Promoter Activity. Also: nearly all actives have a fitted effect of over 50% in size. The conditions noted are these: HEK293 HTT promoter firefly luciferase reporter (activity 0% = vehicle and -100% = no light), 24 h; series mostly up to 57.5 µM; activity change, negative = inhibition: at the top concentration. The method, boiled down:
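Luminescence was read after Dual-Glo reagent and a 10 min room-temperature incubation. Values were normalized to vehicle (0% activity) and zero RLU (-100% activity). Reporter HEK293 cells had been exposed to compounds (up to 57.5 uM final) for 24 h.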
With `COc1ccc(OC)c(CNC(=O)c2nn(C)c3c2CS(=O)(=O)c2ccccc2-3)c1`, the “activity change, negative = inhibition” value is inactive: -11.5%.

In the case of `CN(C)C(=O)c1ccc2c(c1)N(CC(=O)NCc1ccccc1Cl)C(=O)C1CCCCN21` (stereo not drawn), the “activity change, negative = inhibition” value was inactive: -2.45%.

Take `CC(=O)Nc1ccc(Nc2ncnc3c2cnn3C)cc1`: the “activity change, negative = inhibition” value is inactive: 44.4%.

For the molecule `CCOc1ccccc1CNC(=O)c1oc2c(c1C)-c1[nH]ncc1CC2`, the “activity change, negative = inhibition” value was inactive: 2.78%.

Take `CC1CCN(c2ncnc3c2c(-c2ccccc2)cn3-c2ccc(Br)cc2)CC1`: the “activity change, negative = inhibition” value is inactive: -14.4%.

Turning to `CCCN(CCC)C(=O)Cn1c(=O)n(CCCCCC(=O)NCc2ccc3c(c2)OCO3)c(=O)c2sccc21`, the “activity change, negative = inhibition” value is inactive: 1.29%.

For the molecule `Cc1ccc(C)n1-c1nnc(N2CCCC(C(=O)Nc3ccccc3Br)C2)s1` (stereo not drawn), the “activity change, negative = inhibition” value is inactive: -15.8%.

Take `CCOC(=O)c1c(NC(=O)c2cc(OC)c(OC)c(OC)c2)sc2c1CCCC2`: the “activity change, negative = inhibition” value was inactive: 8.67%.

Consider `COc1ccccc1-c1noc(CCCC(=O)Nc2cccc(C(F)(F)F)c2)n1`, for which the “activity change, negative = inhibition” value was inactive: -13.1%.

For `O=C(CN1C(=O)C2(SCC(=O)N2c2cccc(Cl)c2)c2ccccc21)NCc1ccccc1` (stereo not drawn), the “activity change, negative = inhibition” value is inactive: -27%.

With `COc1ccc(-c2cn3nc(N4CCC(C(=O)Nc5cc(Cl)ccc5C)CC4)sc3n2)cc1`, the “activity change, negative = inhibition” value is inactive: 4.27%.

With `C[n+]1cc2c3c(ccc2c2ccc4cc5c(cc4c21)OCO5)OCO3`, the Potency is active: 2.82 µM.

As to `COc1ccc(NC(=O)CCCn2c(=O)c3cccn3c3cccnc32)cc1Cl`, the “activity change, negative = inhibition” value is inactive: -4.93%.

`O=C(CCCCCn1c(=O)c2sccc2n(CC(=O)Nc2cc(C(F)(F)F)ccc2Cl)c1=O)NCc1ccccc1Cl`: the “activity change, negative = inhibition” value was inactive: -25.3%.

Consider `CCc1cccc(-n2c(=O)c3cccnc3n2CC(=O)NCc2ccc(C)cc2)c1`, for which the “activity change, negative = inhibition” value was inactive: -7.15%.

In the case of `Cc1ccc(NC(=O)Cn2cnc3onc(-c4ccc(F)cc4)c3c2=O)c(Cl)c1`, the “activity change, negative = inhibition” value was inactive: -19.2%.

Take `Cc1cccc(CC(=O)Nc2ccc3nc(N4CCC(C)CC4)cc(C)c3c2)c1`: the “activity change, negative = inhibition” value was inactive: -28%.

In the case of `CC1=C(C(=O)Nc2cc(Cl)ccc2C)C(c2sccc2C)n2ncnc2N1` (stereo not drawn), the “activity change, negative = inhibition” value is inactive: 0.373%.

`Cc1cc(C)c(NC(=O)Cn2c(=O)n(CCC(=O)NCc3ccccc3Cl)c(=O)c3sccc32)c(C)c1`: the “activity change, negative = inhibition” value was inactive: -11%.

On to `CSc1ncc(C(=O)NCc2ccc(C)cc2)c(C)n1`, for which the “activity change, negative = inhibition” value was inactive: -6.71%.

Take `CC(C)(C)c1ccc2c(c1)N(CC(=O)NCCCN1CCN(c3ccccc3F)CC1)C(=O)CO2`: the “activity change, negative = inhibition” value was inactive: -29.3%.

Take `CC(C)N(C(=O)Cn1cc(S(=O)(=O)Cc2ccc(Br)cc2)c2ccccc21)C(C)C`: the “activity change, negative = inhibition” value is inactive: -11.7%.

As for `CC1CCN(S(=O)(=O)c2ccc3c(c2)N(CC(=O)NCCCN2CCCCC2)C(=O)CS3)CC1`, the “activity change, negative = inhibition” value was inactive: -12.9%.

For `Cc1ccc(CNC(=O)c2cc(-c3ccc(C)cc3)nc3n[nH]c(-c4cccc([N+](=O)[O-])c4)c23)cc1`, the “activity change, negative = inhibition” value was inactive: -8.91%.

As to `CCOc1ccc(S(=O)(=O)NCCc2c(C)[nH]c3c(Cl)cccc23)cc1C`, the “activity change, negative = inhibition” value was inactive: -18.7%.

For `Cc1ccc(-n2c(COCC(=O)O)nc3cccnc32)cc1`, the “activity change, negative = inhibition” value is inactive: -22%.

As to `Cc1ccc(/C=C(\C#N)C(=O)Nc2cccc(Br)c2)o1`, the “activity change, negative = inhibition” value is inactive: 49.2%.

As to `Cc1ccc(Cl)cc1N1CCN(C(=O)c2cc3c(=O)oc4ccccc4c3s2)CC1`, the “activity change, negative = inhibition” value is inactive: -17.1%.

Regarding `CCN1CCN(C(c2ccccc2Cl)c2c(O)cc(C)n(CCOC)c2=O)CC1` (stereo not drawn), the “activity change, negative = inhibition” value was inactive: -11.1%.

As for `CC1(C)CCC(C)(C)c2cc(NC(=O)c3ccc(C(=O)O)cc3)ccc21`, the activity change, negative = inhibition result was “inactive”.

On to `CCCCn1c(=O)nc2n(-c3ccc(Br)cc3)c3ccccc3cc-2c1=O`, for which the “activity change, negative = inhibition” value is inactive: 0.301%.

As to `Nc1nn(-c2ccccc2)nc1C(=O)OCc1ccccc1`, the “activity change, negative = inhibition” value is inactive: 19.9%.

On to `CC1CCCN(CCCNC(=O)Cn2ncc3c([nH]c4ccccc43)c2=O)C1` (stereo not drawn), for which the “activity change, negative = inhibition” value was inactive: -3.05%.

`Cc1nc2ccc(S(=O)(=O)NCC(=O)Nc3ccc(F)cc3F)cc2s1`: the “activity change, negative = inhibition” value is inactive: -11.3%.

Consider `Cc1ccc(S(=O)(=O)N2CCN(Cc3nc4ccc(C)cc4o3)CC2)c(C)c1`, for which the “activity change, negative = inhibition” value was inactive: -7.65%.

Turning to `N[C@@H](Cc1cc(I)c(Oc2cc(I)c(O)c(I)c2)c(I)c1)C(=O)O`, the activity change, negative = inhibition entry is “inactive”.

Regarding `CC(C)(C)C(=O)Nc1ccccc1C(=O)OCc1cc(=O)n2ccsc2n1`, the “activity change, negative = inhibition” value was inactive: -8.91%.

With `Cc1ccc(-n2c(SCC(=O)N3CCCc4ccccc43)nc3c([nH]c4ccccc43)c2=O)cc1`, the “activity change, negative = inhibition” value was inactive: 13.1%.

Take `CCc1ccc(C2=CC(c3c(F)cccc3Cl)n3c(nc4ccccc43)N2)cc1` (stereo not drawn): the “activity change, negative = inhibition” value is inactive: -10.3%.

As for `CCOC(=O)c1c(C)[nH]c(C)c1S(=O)(=O)N(C)CC(=O)Nc1ccc(C)cc1Br`, the “activity change, negative = inhibition” value was inactive: -31.3%.

With `COCCCNC(=O)CSC1=Nc2ccccc2C2=NC(CCC(=O)NCc3ccc(OC)cc3)C(=O)N12` (stereo not drawn), the “activity change, negative = inhibition” value is inactive: -19.8%.

Consider `Cc1ccc(-c2cn3ccc(C)cc3n2)cc1`, for which the “activity change, negative = inhibition” value was inactive: -9.83%.

As for `CC(C)CCn1c(/C=C/c2ccccc2)nc2ccccc21`, the “activity change, negative = inhibition” value is inactive: -14.3%.

For the molecule `Cc1cc(C)cc(NC(=O)CSc2nc3nccnc3c(=O)n2CCc2c[nH]c3ccccc23)c1`, the “activity change, negative = inhibition” value is inactive: -15.9%.

As for `CCOC(=O)Cn1c(=O)n(C2CCCCC2)c2nc(-c3c(F)cccc3Cl)nc(C(N)=O)c21`, the “activity change, negative = inhibition” value was inactive: -39.7%.

Regarding `Cc1cccc(NC(=O)Cn2c(=O)n(CCCCCC(=O)NCc3ccc4c(c3)OCO4)c(=O)c3sccc32)c1`, the “activity change, negative = inhibition” value was inactive: -1.41%.

For `COC(=O)c1scc(-c2ccc(C)cc2)c1S(=O)(=O)Nc1cc(C)ccc1OC`, the “activity change, negative = inhibition” value was inactive: -25.1%.

With `COc1ccc(Nc2nc(C)nc(N)c2S(=O)(=O)c2ccccc2)cc1`, the “activity change, negative = inhibition” value was inactive: -4.61%.

The values are drawn from PubChem BioAssay AID1508623 (National Center for Advancing Translational Sciences (NCATS), 2021).
